In PubChem BioAssay AID602356 (Sanford-Burnham Center for Chemical Genomics, 2012):
Not every entry of the source has a single result; some have several. This list holds those alone. The rule behind the calls is not given here. The source may hold further records. The values listed for one entry are repeats (runs, samples, wells, individuals or studies). A tag in brackets gives the origin of a value. A, B and so on number the origins entry by entry.

Target: Neurotensin receptor type 1 (Homo sapiens) (UniProt P30989)
Assay: NTR1 agonists in analog series, SAR follow-up, imaging, image-based, set 3 (AID 602356)
Conditions: NTR1 image-based agonist assay, cellular imaging

Sequence of UniProt P30989 (P30989 whole entry, looked up): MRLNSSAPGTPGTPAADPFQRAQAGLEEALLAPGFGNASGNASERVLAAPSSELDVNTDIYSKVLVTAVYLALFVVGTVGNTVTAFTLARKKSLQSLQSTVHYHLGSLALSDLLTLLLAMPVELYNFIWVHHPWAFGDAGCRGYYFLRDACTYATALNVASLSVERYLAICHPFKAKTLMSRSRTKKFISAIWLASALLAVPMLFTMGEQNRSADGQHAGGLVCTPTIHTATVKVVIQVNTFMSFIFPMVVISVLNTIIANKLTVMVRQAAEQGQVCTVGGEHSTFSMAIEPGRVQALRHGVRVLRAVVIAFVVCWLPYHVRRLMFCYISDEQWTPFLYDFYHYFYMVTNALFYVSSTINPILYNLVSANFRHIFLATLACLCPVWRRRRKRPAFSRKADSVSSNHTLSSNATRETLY

COc1cc2nc(-c3ccccc3)nc(N3CCN(c4ccccc4OC)CC3)c2cc1OC
EC50: 8.72 µM [sample A] and inactive [sample B]
